TGI and GI50 data for 4 molecules are collected here from PubChem BioAssay (NCI).

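Interpolation was linear, between the two tested concentrations surrounding the appropriate level; five concentrations were tested over 48 hours in 96-well plates. GI50 is the concentration that inhibits growth by half.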 The source holds more than one record for some entries. This list holds those alone. The source may hold further records. A record mostly stands for its own series of concentrations, which the source does not state; some values may only mark the edge of a range.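 At the TGI there is no net growth.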

Among the test systems are A498 renal; CAKI-1 renal; HT29 colon; MDA-MB-231 breast; NCI-H226 lung; SNB-19 CNS; HL-60(TB) leukemia; K-562 leukemia; MOLT-4 leukemia; SR leukemia; ACHN renal; NCI-H460 lung; HCT-116 colon; RPMI-8226 leukemia; SW-620 colon; UACC-62 melanoma.
Holding throughout (assay): NCI anticancer screen, dose series, 48 h

On to `C[C@@H]1Nc2cc(NC(=O)OCCF)nc(N)c2N=C1c1ccccc1`, for which the TGI is < 0.1 nM and > 100 µM in the experiment on A498 renal; < 0.1 nM and > 100 µM in the experiment on CAKI-1 renal; < 0.1 nM and 3.23 µM with HT29 colon; < 0.1 nM and > 100 µM in the experiment on MDA-MB-231 breast; < 0.1 nM and > 100 µM in the experiment with NCI-H226 lung; 335 nM and > 100 µM in the experiment with SNB-19 CNS.

For the molecule `CC1=CC(=O)C=CC1=O`, the TGI in the experiment on HL-60(TB) leukemia is 5.16 µM [1 test] and 80.4 µM [mean of 2 tests]; with K-562 leukemia it was 7.59 µM [1 test] and 175 µM [mean of 2 tests]; with MOLT-4 leukemia it was 7.73 µM [1 test] and 80.3 µM [mean of 2 tests]; with SR leukemia it was 6.39 µM [1 test] and 263 µM [mean of 2 tests].

Turning to `COc1cccc2c1C(=O)c1c(O)c3c(c(O)c1C2=O)CC(O)(C(=O)CO)CC3OC1CC(N2CCOCC2C#N)C(O)C(C)O1` (stereo unspecified), the TGI was < 0.1 nM and > 100 µM with ACHN renal; < 0.1 nM and 15 µM in the experiment on NCI-H460 lung.

For `COc1cc(Cc2nccc3cc(OC)c(OC)cc23)c(C(C)=O)cc1OC`, the TGI with HCT-116 colon is > 750 µM [1 test] and 65.3 µM [mean of 3 tests]. Also, the GI50 in the experiment with RPMI-8226 leukemia was 38.8 µM, > 750 µM [1 test] and 118 µM [mean of 3 tests]; in the experiment on SW-620 colon, 71.9 µM, > 750 µM [1 test] and 148 µM [mean of 4 tests]; in the experiment on UACC-62 melanoma, 68.6 µM and > 750 µM.
